# Results taken from PubChem BioAssay AID686978 (National Center for Advancing Translational Sciences (NCATS), 2013).
# Hit rate of the full screen: of about 420,000 compounds, about 64,000 (15%) were called active. The shares of active, inactive and inconclusive entries below differ from those in the screen. The call rests on the fitted dose curve; in most records, active means well fitted inhibition curve with a large enough effect; inconclusive means small, poorly fitted or top-dose-only effect; inactive means flat fitted curve, though single readings scatter. Potencies of inconclusive entries are left out as doubtful fits.
# Assay: qHTS for Inhibitors of human tyrosyl-DNA phosphodiesterase 1 (TDP1): qHTS in cells in absence of CPT; further: nearly all actives have a fitted effect of over 55% in size
# Details: DT40 Tdp1-/- hTDP1 cells, no CPT, ATP luminescence, 48 h; activity change, negative = growth inhibition: at 46.2 µM (top of the series)
# Outline: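 Luminescent ATP content (CellTiter-Glo) served as the growth readout. Knockout chicken DT40 cells expressing human TDP1 were exposed to compounds without camptothecin for a minimum 48 hr at 37 °C.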
# On the % scale 0 is the no-effect control and ±100 the full control effect; potency means the concentration at half of the fitted maximal effect; tags describe the fitted curve by direction and shape.
Compound,"activity change, negative = growth inhibition",Potency
Cc1ccc2c(=O)c(C(=O)c3ccccc3)cn(CC(=O)Nc3ccc(C)c(Cl)c3)c2n1,inactive: -19.9%,–
Cc1ccc(S(=O)(=O)Nc2ccc3ccccc3n2)cc1,–,"inconclusive [inhibitor, single point]"
Cc1ccc(C)c(NC(=O)Cn2nnc(C(=O)NCc3cccs3)c2N)c1,–,"inconclusive [inhibitor, single point]"
CC(=O)Nc1ccccc1NC(=O)C/C(C)=N/NC(=O)c1cccnc1,inactive: -13.4%,–
Cn1c(=O)cc(Nc2ccccc2)[nH]c1=O,inactive: -17.6%,–
CCOc1ccccc1Nc1nc(-c2sc(C)nc2C)cs1,–,"inconclusive [inhibitor, single point]"
CCCC(=O)N1CCC1(C)C(=O)Nc1cc(-c2ccccc2)nn1C (stereo unspecified),inactive: -74.5%,–
CSc1ccc(S(=O)(=O)N2CCC(C(=O)Nc3ccc(C(N)=O)cc3)CC2)cc1,inactive: -5.64%,–
COc1ccc(N=C2NC(=O)/C(=C\C=C\c3ccccc3)S2)cc1,–,"inconclusive [inhibitor, single point]"
CCN(CC)c1ccc(NC(=O)c2ccccn2)cc1S(=O)(=O)Nc1ccccc1OC,–,active: 20.6 µM
CCOC(=O)CSc1nc2ccc(Nc3nc(N4CCOCC4)nc(N4CCOCC4)n3)cc2s1,–,active: 20.6 µM
CC(=O)N1c2ccc(S(=O)(=O)N3CCC(C(=O)N4CCCCC4)CC3)cc2CC1C (stereo unspecified),–,"inconclusive [inhibitor, partial curve]"
COc1ccccc1CNC(=S)Nc1cc(C)ccc1C,–,"inconclusive [inhibitor, single point]"
Fc1ccc(C2CCCN2Cc2nc(-c3cnccn3)no2)cc1 (stereo unspecified),–,"inconclusive [inhibitor, single point]"
CCN(Cc1ccccc1)C(c1cc2cc(C)ccc2[nH]c1=O)c1nnnn1CCOC (stereo unspecified),–,"inconclusive [inhibitor, single point]"
CCNC(=O)NC(=O)CSc1ccc2ccccc2c1,inconclusive: -33.9% [inhibitor],–
COc1cc2c(cc1NC(=O)CCCN1C(=O)CCC1=O)oc1ccccc12,–,"inconclusive [inhibitor, single point]"
Cc1nc2ccccc2nc1OCC(=O)NCc1ccc2c(c1)OCO2,–,active: 7.31 µM
CCOc1ccc(NC(=S)Nc2ccc(OCc3ccccc3)cc2)cc1,inactive: -23.1%,–
CC1Cc2ccccc2N1C(=O)c1cnc2n(c1=O)CCS2 (stereo unspecified),inconclusive: 7.8% [inhibitor],–
Cc1c(C(=O)N2CCCCC2)oc2ccc(S(=O)(=O)N3CC(C)CC(C)C3)cc12 (stereo unspecified),–,active: 13 µM
